Experimental data reported in PubChem BioAssay AID624296 (National Center for Advancing Translational Sciences (NCATS), 2012).
The campaign covered roughly 350,000 compounds. About 9,900 (2.8%) were called active. The inconclusive results got no clear call from the source; some entries with a clear call stand among them for comparison. Calls follow the shape of the dose curve; as a rule, active = well fitted activation curve with a large enough effect; inconclusive = small, poorly fitted or top-dose-only effect; inactive = no such curve, though single readings can be large or run the other way. No potency is given beside an inconclusive call; the fits are too rough.

experiment: A quantitative high throughput screen for small molecules that induce DNA re-replication in MCF 10a normal breast cells.; also: nearly all actives have a fitted effect of over 50% in size; conditions: MCF 10A DNA re-replication, Hoechst nuclear intensity, 48 h; series mostly up to 46.1 µM
Potency is read from the fitted curve at half-maximal effect; tags tell the direction and shape of the fitted curve.

SMILES	Potency
CS(=O)(=O)c1ccc(Cl)c(NC(=O)Cc2c(F)cccc2Cl)c1	inactive
CCCCN1CCN=C1N(C)C	inactive
COc1ccccc1CNCc1cc(Br)ccc1OC	inconclusive [activator, full curve, poor fit]
C=CCOc1ccc(/C=C/C(=O)N2CCCN(S(=O)(=O)c3c(C)noc3C)CC2)cc1	inconclusive [activator, partial curve, poor fit]
Cc1cccc(OCC(=O)Nc2ccccc2N2CCCCC2)c1	inconclusive [activator, single point]
Fc1ccc(C(c2nnnn2CCc2ccccc2)N2CCCc3ccccc32)cc1 (stereo not given)	inconclusive [activator, full curve]
NC(=O)C(c1ccc(Cl)cc1)c1ccc(Sc2ccc(Cl)cc2)nn1 (stereo not given)	inactive
COc1ccccc1Nc1nc(Cl)nc(NC(C)(C)C)n1	inconclusive [activator, partial curve]
COc1ccc(C2C3C(=O)N(Cc4ccccc4)C(=O)C3ON2c2ccccc2)c(OC)c1OC (stereo not given)	inconclusive [activator, full curve, poor fit]
Cc1cc(C)cc(C(=O)N(CCc2ccccc2)C2CC3CCC(C2)N3C)c1 (stereo not given)	inconclusive [activator, partial curve, poor fit]
Nc1cccc(O)c1	inconclusive [activator, full curve, poor fit]
CCOC(=O)C1CCCN(CCC(=O)Nc2ccc3c(c2)CCC3)C1 (stereo not given)	inconclusive [activator, single point]
COc1ccc(N=Cc2c(O)n(-c3cccc(C)n3)c(=O)c3ccccc23)c(OC)c1	inconclusive [activator, single point]
Cn1c(/C(C#N)=C(\O)c2ccccc2Cl)nc2ccccc21	inconclusive [activator, partial curve]
COc1ccccc1-c1cc(C(=O)NCc2ccc(F)cc2)no1	inconclusive [activator, single point]
CCOC(=O)c1cc(C(=O)n2cc(Cl)cn2)nn1C	inactive
NC(=S)NNC(=O)Nc1cccc(Cl)c1	inactive
Cc1ccsc1/C=N/NC(=O)CO	inconclusive [activator, full curve]
CCn1c2ccccc2c2cc(NC(=O)c3ccc([N+](=O)[O-])cc3)ccc21	inactive
Cc1cc(C(=O)CCl)c(C)n1-c1cccc(S(=O)(=O)N2CCOCC2)c1	inconclusive [activator, single point]
